No constants are given. Whether binding was seen depends on the method and setting. In cells and extracts the contact can be indirect. Some entries that bind do so weakly or less than the wild type. Sequences can lack the tags named with a protein.
Assays:
Test in all cases: pull-down; 5 ug GST-PLEKHA7 WW bait (E. coli) coupled to GSH-Sepharose beads, washed, incubated 1 h at 4 °C with normalized HEK cell lysate holding PDZD11-HA or CFP-HA; immunoblot with anti-HA; only the target purified
[1] = target: T1, GST-PLEKHA7 WW1 + WW2 domain (1-162), mutation within the WW2 domain at position 85 (human) (UniProt Q6IQ23)
T1 sequence: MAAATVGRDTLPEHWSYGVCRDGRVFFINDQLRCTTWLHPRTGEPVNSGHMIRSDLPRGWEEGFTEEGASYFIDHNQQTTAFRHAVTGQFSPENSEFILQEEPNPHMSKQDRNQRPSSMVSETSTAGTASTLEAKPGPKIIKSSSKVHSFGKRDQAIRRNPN

[2] = target: T2, GST-PLEKHA7 WW1 + WW2 domain (1-162) V25A (human) (UniProt Q6IQ23)
T2 sequence: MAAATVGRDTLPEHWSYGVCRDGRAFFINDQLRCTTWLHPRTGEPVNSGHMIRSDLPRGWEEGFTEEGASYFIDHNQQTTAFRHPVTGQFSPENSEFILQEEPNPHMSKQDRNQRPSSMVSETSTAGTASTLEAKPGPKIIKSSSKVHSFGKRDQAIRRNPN

[3] = target: T3, GST-PLEKHA7 (human) WW1 domain (residues 1-56), WT (human) (UniProt Q6IQ23)
T3 sequence: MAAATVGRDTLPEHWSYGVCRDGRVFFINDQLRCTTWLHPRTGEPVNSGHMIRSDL

[4] = target: T4, GST-PLEKHA7 WW1 domain (residues 1-56) L32A (human) (UniProt Q6IQ23)
T4 sequence: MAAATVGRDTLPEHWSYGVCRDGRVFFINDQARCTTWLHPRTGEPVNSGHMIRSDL

[5] = target: T5, GST-PLEKHA7 WW1 + WW2 domain (1-162) Y17A (human) (UniProt Q6IQ23)
T5 sequence: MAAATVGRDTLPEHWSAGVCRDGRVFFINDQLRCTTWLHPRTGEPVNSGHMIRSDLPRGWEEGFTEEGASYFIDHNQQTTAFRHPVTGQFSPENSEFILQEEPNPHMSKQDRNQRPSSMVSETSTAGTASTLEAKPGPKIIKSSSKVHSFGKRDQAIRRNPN

[6] = target: T6, GST-PLEKHA7 WW1 + WW2 domain (1-162) D30A + N76A (human) (UniProt Q6IQ23)
T6 sequence: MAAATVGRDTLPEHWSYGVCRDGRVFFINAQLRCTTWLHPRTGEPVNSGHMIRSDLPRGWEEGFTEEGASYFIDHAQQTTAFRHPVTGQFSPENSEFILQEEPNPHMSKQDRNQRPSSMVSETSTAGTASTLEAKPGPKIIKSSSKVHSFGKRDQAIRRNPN

[7] = target: T7, GST-PLEKHA7 WW1 + WW2 domain (1-162) V19A (human) (UniProt Q6IQ23)
T7 sequence: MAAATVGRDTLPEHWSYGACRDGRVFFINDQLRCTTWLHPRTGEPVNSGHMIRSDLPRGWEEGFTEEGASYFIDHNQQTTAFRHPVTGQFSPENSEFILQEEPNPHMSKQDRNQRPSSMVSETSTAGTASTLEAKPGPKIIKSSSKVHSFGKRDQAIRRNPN

[8] = target: T8, GST-PLEKHA7 WW1 + WW2 domain (1-162) L32A (human) (UniProt Q6IQ23)
T8 sequence: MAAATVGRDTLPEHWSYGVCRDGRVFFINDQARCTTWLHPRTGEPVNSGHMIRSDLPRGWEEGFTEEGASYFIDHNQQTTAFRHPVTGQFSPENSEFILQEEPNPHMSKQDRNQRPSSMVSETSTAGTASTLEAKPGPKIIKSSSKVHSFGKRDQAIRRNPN

[9] = target: T9, GST-PLEKHA7 WW1 + WW2 domain (1-162) F27A (human) (UniProt Q6IQ23)
T9 sequence: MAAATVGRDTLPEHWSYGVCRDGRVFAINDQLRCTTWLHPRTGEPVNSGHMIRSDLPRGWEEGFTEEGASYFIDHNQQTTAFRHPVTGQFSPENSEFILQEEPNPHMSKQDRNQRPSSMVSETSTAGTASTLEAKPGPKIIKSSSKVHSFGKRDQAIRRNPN

Measured: binding

B1: PDZD11-HA (human) full-length (protein, UniProt Q5EBL8 1-140)
chain: MDSRIPYDDYPVVFLPAYENPPAWIPPHERVHHPDYNNELTQFLPRTITLKKPPGAQLGFNIRGGKASQLGIFISKVIPDSDAHRAGLQEGDQVLAVNDVDFQDIEHSKAVEILKTAREISMRVRFFPYNYHRQKERTVH
binds: all assays above

— article PMC7363125
